# Results from the supplement of paper PMC10369915.
# This is one part of the list. Cut-off read from the data, not from the text of the source: active = 3.2 or more and inactive = the rest. Most of these values are background signal.
# Molecular target: SHP2 C-SH2 domain E139D
# Assay: enrichment score (SH2-bound / input frequency) (ratio); bacterial display of known human phosphotyrosine sites (pTyr-Var adds point mutants) read by sequencing; higher = stronger binding; tyrosines were phosphorylated by kinases first
# Details: peptide library: pTyr-Var
# 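Note: displayed peptides selected on beads carrying the immobilized SH2 domain, with library peptides lacking any tyrosine serving as negative controls.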
row,Binder,enrichment score
1,PSSRDYKHNIK [PIGN_Y227],inactive: 0.416
2,PSSRDYKDNIK [PIGN_Y227_H229D],inactive: 0.271
3,PDNKPYIFKVF [PIK3AP1_Y553_E551K],inactive: 1.06
4,DKEKWYPLGNS [PIK3C2G_Y1438],inactive: 0.881
5,DKEKWYPLGTS [PIK3C2G_Y1438_N1442T],inactive: 0.887
6,TKQLTYEEQYL [PIK3C3_Y310_D314Y],inactive: 0.777
7,TKQLTYEEQFL [PIK3C3_Y310_D314Y_YF],inactive: 0.76
8,FDDIAYIRKAL [PIK3CA_Y1021_T1025A],inactive: 0.992
9,QEALEYFMKQV [PIK3CA_Y1038_M1043V],inactive: 1.2
10,DIDKIYVRTGI [PIK3CA_Y355],inactive: 0.701
11,DIDKIYIRTGI [PIK3CA_Y355_V356I],inactive: 0.766
12,VRTGIYHGGEP [PIK3CA_Y361],inactive: 0.677
13,VRTGIYHGGKP [PIK3CA_Y361_E365K],inactive: 1.04
14,VRTGIYHGREP [PIK3CA_Y361_G364R],inactive: 0.9
15,KKLHKYNTQFQ [PIK3R1_Y452_E451K],active: 3.22
16,EKSREYDRLYE [PIK3R1_Y463],inactive: 0.598
17,EESREYDRLFE [PIK3R1_Y463_K459E_YF],inactive: 0.643
18,EYDRLYEEYTR [PIK3R1_Y467],inactive: 1.18
19,HVEAVYIDIAD [PITPNA_Y140],inactive: 0.789

# Molecular target: SHP2 C-SH2 domain wild-type
# Assay: as above
# Details: peptide library: pTyr-Var
row,Binder,enrichment score
1,PSSRDYKHNIK [PIGN_Y227],inactive: 0.592
2,PSSRDYKDNIK [PIGN_Y227_H229D],inactive: 0.269
3,PDNKPYIFKVF [PIK3AP1_Y553_E551K],inactive: 1.03
4,DKEKWYPLGNS [PIK3C2G_Y1438],inactive: 0.932
5,DKEKWYPLGTS [PIK3C2G_Y1438_N1442T],inactive: 0.745
6,TKQLTYEEQYL [PIK3C3_Y310_D314Y],inactive: 0.647
7,TKQLTYEEQFL [PIK3C3_Y310_D314Y_YF],inactive: 0.704
8,FDDIAYIRKAL [PIK3CA_Y1021_T1025A],inactive: 0.695
9,QEALEYFMKQV [PIK3CA_Y1038_M1043V],inactive: 1.33
10,DIDKIYVRTGI [PIK3CA_Y355],inactive: 0.847
11,DIDKIYIRTGI [PIK3CA_Y355_V356I],inactive: 0.791
12,VRTGIYHGGEP [PIK3CA_Y361],inactive: 0.685
13,VRTGIYHGGKP [PIK3CA_Y361_E365K],inactive: 0.951
14,VRTGIYHGREP [PIK3CA_Y361_G364R],inactive: 0.814
15,KKLHKYNTQFQ [PIK3R1_Y452_E451K],inactive: 2.55
16,EKSREYDRLYE [PIK3R1_Y463],inactive: 0.749
17,EESREYDRLFE [PIK3R1_Y463_K459E_YF],inactive: 0.753
18,EYDRLYEEYTR [PIK3R1_Y467],inactive: 1.27
19,HVEAVYIDIAD [PITPNA_Y140],inactive: 0.675

# Molecular target: SHP2 N-SH2 domain L43F
# Assay: as above
# Details: peptide library: pTyr-Var
row,Binder,enrichment score
1,PSSRDYKHNIK [PIGN_Y227],inactive: 0.768
2,PSSRDYKDNIK [PIGN_Y227_H229D],inactive: 0.455
3,PDNKPYIFKVF [PIK3AP1_Y553_E551K],inactive: 0.83
4,DKEKWYPLGNS [PIK3C2G_Y1438],inactive: 1.06
5,DKEKWYPLGTS [PIK3C2G_Y1438_N1442T],inactive: 0.902
6,TKQLTYEEQYL [PIK3C3_Y310_D314Y],inactive: 0.805
7,TKQLTYEEQFL [PIK3C3_Y310_D314Y_YF],inactive: 0.735
8,FDDIAYIRKAL [PIK3CA_Y1021_T1025A],inactive: 0.746
9,QEALEYFMKQV [PIK3CA_Y1038_M1043V],inactive: 1.15
10,DIDKIYVRTGI [PIK3CA_Y355],inactive: 0.871
11,DIDKIYIRTGI [PIK3CA_Y355_V356I],inactive: 0.682
12,VRTGIYHGGEP [PIK3CA_Y361],inactive: 0.675
13,VRTGIYHGGKP [PIK3CA_Y361_E365K],inactive: 0.972
14,VRTGIYHGREP [PIK3CA_Y361_G364R],inactive: 0.89
15,KKLHKYNTQFQ [PIK3R1_Y452_E451K],inactive: 2.26
16,EKSREYDRLYE [PIK3R1_Y463],inactive: 0.554
17,EESREYDRLFE [PIK3R1_Y463_K459E_YF],inactive: 0.475
18,EYDRLYEEYTR [PIK3R1_Y467],inactive: 1.01
19,HVEAVYIDIAD [PITPNA_Y140],inactive: 0.712

# Molecular target: SHP2 N-SH2 domain T42A
# Assay: as above
# Details: peptide library: pTyr-Var
row,Binder,enrichment score
1,PSSRDYKHNIK [PIGN_Y227],inactive: 0.584
2,PSSRDYKDNIK [PIGN_Y227_H229D],inactive: 0.313
3,PDNKPYIFKVF [PIK3AP1_Y553_E551K],inactive: 0.981
4,DKEKWYPLGNS [PIK3C2G_Y1438],inactive: 0.769
5,DKEKWYPLGTS [PIK3C2G_Y1438_N1442T],inactive: 0.782
6,TKQLTYEEQYL [PIK3C3_Y310_D314Y],inactive: 0.641
7,TKQLTYEEQFL [PIK3C3_Y310_D314Y_YF],inactive: 1.02
8,FDDIAYIRKAL [PIK3CA_Y1021_T1025A],inactive: 0.719
9,QEALEYFMKQV [PIK3CA_Y1038_M1043V],inactive: 1.28
10,DIDKIYVRTGI [PIK3CA_Y355],inactive: 0.694
11,DIDKIYIRTGI [PIK3CA_Y355_V356I],inactive: 0.919
12,VRTGIYHGGEP [PIK3CA_Y361],inactive: 0.622
13,VRTGIYHGGKP [PIK3CA_Y361_E365K],inactive: 1.02
14,VRTGIYHGREP [PIK3CA_Y361_G364R],inactive: 0.794
15,KKLHKYNTQFQ [PIK3R1_Y452_E451K],inactive: 1.92
16,EKSREYDRLYE [PIK3R1_Y463],inactive: 0.749
17,EESREYDRLFE [PIK3R1_Y463_K459E_YF],inactive: 0.731
18,EYDRLYEEYTR [PIK3R1_Y467],inactive: 0.797
19,HVEAVYIDIAD [PITPNA_Y140],inactive: 0.762

# Molecular target: SHP2 N-SH2 domain T52S
# Assay: as above
# Details: peptide library: pTyr-Var
row,Binder,enrichment score
1,PSSRDYKHNIK [PIGN_Y227],inactive: 0.733
2,PSSRDYKDNIK [PIGN_Y227_H229D],inactive: 0.469
3,PDNKPYIFKVF [PIK3AP1_Y553_E551K],inactive: 0.836
4,DKEKWYPLGNS [PIK3C2G_Y1438],inactive: 0.949
5,DKEKWYPLGTS [PIK3C2G_Y1438_N1442T],inactive: 0.993
6,TKQLTYEEQYL [PIK3C3_Y310_D314Y],inactive: 0.718
7,TKQLTYEEQFL [PIK3C3_Y310_D314Y_YF],inactive: 0.681
8,FDDIAYIRKAL [PIK3CA_Y1021_T1025A],inactive: 1.03
9,QEALEYFMKQV [PIK3CA_Y1038_M1043V],inactive: 1.07
10,DIDKIYVRTGI [PIK3CA_Y355],inactive: 0.877
11,DIDKIYIRTGI [PIK3CA_Y355_V356I],inactive: 0.599
12,VRTGIYHGGEP [PIK3CA_Y361],inactive: 0.778
13,VRTGIYHGGKP [PIK3CA_Y361_E365K],inactive: 1.01
14,VRTGIYHGREP [PIK3CA_Y361_G364R],inactive: 0.919
15,KKLHKYNTQFQ [PIK3R1_Y452_E451K],inactive: 2.45
16,EKSREYDRLYE [PIK3R1_Y463],inactive: 0.563
17,EESREYDRLFE [PIK3R1_Y463_K459E_YF],inactive: 0.681
18,EYDRLYEEYTR [PIK3R1_Y467],inactive: 0.995
19,HVEAVYIDIAD [PITPNA_Y140],inactive: 0.847

# Molecular target: SHP2 N-SH2 domain wild-type
# Assay: as above
# Details: peptide library: pTyr-Var
row,Binder,enrichment score
1,PSSRDYKHNIK [PIGN_Y227],inactive: 0.823
2,PSSRDYKDNIK [PIGN_Y227_H229D],inactive: 0.352
3,PDNKPYIFKVF [PIK3AP1_Y553_E551K],inactive: 0.857
4,DKEKWYPLGNS [PIK3C2G_Y1438],inactive: 1.28
5,DKEKWYPLGTS [PIK3C2G_Y1438_N1442T],inactive: 0.843
6,TKQLTYEEQYL [PIK3C3_Y310_D314Y],inactive: 0.737
7,TKQLTYEEQFL [PIK3C3_Y310_D314Y_YF],inactive: 0.828
8,FDDIAYIRKAL [PIK3CA_Y1021_T1025A],inactive: 0.81
9,QEALEYFMKQV [PIK3CA_Y1038_M1043V],inactive: 1.37
10,DIDKIYVRTGI [PIK3CA_Y355],inactive: 0.863
11,DIDKIYIRTGI [PIK3CA_Y355_V356I],inactive: 0.585
12,VRTGIYHGGEP [PIK3CA_Y361],inactive: 0.741
13,VRTGIYHGGKP [PIK3CA_Y361_E365K],inactive: 1.07
14,VRTGIYHGREP [PIK3CA_Y361_G364R],inactive: 0.909
15,KKLHKYNTQFQ [PIK3R1_Y452_E451K],inactive: 2.41
16,EKSREYDRLYE [PIK3R1_Y463],inactive: 0.7
17,EESREYDRLFE [PIK3R1_Y463_K459E_YF],inactive: 0.619
18,EYDRLYEEYTR [PIK3R1_Y467],inactive: 1.16
19,HVEAVYIDIAD [PITPNA_Y140],inactive: 0.748
